Measurements taken from the supplement of paper PMC12217912.
The list shows a part of the results. The full chains were built here from the parent and the listed change. Inactive controls read about 0.05.

B1: TEV protease; numbered along this chain (parent)
chain: MGESLFKGPRDYNPISSSICHLTNESDGHTTSLYGIGFGPFIITNKHLFRRNNGTLVVQSLHGVFKVKDTTTLQQHLVDGRDMIIIRMPKDFPPFPQKLKFREPQREERICLVTTNFQTKSMSSMVSDTSCTFPSGDGIFWKHWIQTKDGQCGSPLVSTRDGFIVGIHSASNFTNTNNYFTSVPKNFMELLTNQEAQQWVSGWRLNADSVLWGGHKVFMVKPEEPFQPVKEATQL

Variants of: B1
Experiment: raw area under fraction-flipped curve 0-4 h after induction (AUC4h, not background-subtracted), DNA-recorder readout of cleavage of the substrate (dimensionless); higher = more cleavage of the substrate by the protease variant
Settings: temperature: 34 °C; time window: 0-4 h after rhamnose induction
Protocol: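 In vivo DNA recorder in E. coli TOP10(DE3) ΔrhaA at 34 °C. Each TEVp single-site mutant (parent TEVp 0) is paired with a single-site variant of the 7-mer TEVs (canonical ENLYFQ|S). The substrate sits between flexible linkers in a Bxb1-sfGFP-TEVs-SsrA fusion, so cleavage stabilises Bxb1 and speeds flipping of a recombination array, read by NGS. The value is the raw area under the fraction-flipped curve over 0-4 h after rhamnose induction (AUC4h), with ≥20 reads per time point. It is not background-subtracted; inactive controls average about 0.047.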
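Also: Bxb1 expression induced with 0.2% (w/v) L-rhamnose at OD600 near 0.5, cultures sampled hourly, flipped fraction per protease–substrate barcode pair counted by paired-end Illumina sequencing.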

Variant | area with substrate ENLCFQS | area with substrate ENLDFQS | area with substrate ENLEFQS | area with substrate ENLFFQS | area with substrate ENLHFQS | area with substrate ENLKFQS | area with substrate ENLLFQS | area with substrate ENLNFQS | area with substrate ENLPFQS | area with substrate ENLQFQS | area with substrate ENLTFQS | area with substrate ENLVFQS | area with substrate ENLWFQS | area with substrate ENLGFQS | area with substrate ENLRFQS | area with substrate ENLSFQS | area with substrate ENLIFQS | area with substrate ENLAFQS | area with substrate ENLMFQS
MGESLFKGPRDYNPISSSICHLTNESDGHTTSLYGIGFGPFIITNKHLFRCNNGTLVVQSLHGVFKVKDTTTLQQHLVDGRDMIIIRMPKDFPPFPQKLKFREPQREERICLVTTNFQTKSMSSMVSDTSCTFPSGDGIFWKHWIQTKDGQCGSPLVSTRDGFIVGIHSASNFTNTNNYFTSVPKNFMELLTNQEAQQWVSGWRLNADSVLWGGHKVFMVKPEEPFQPVKEATQL [R51C] | 0.0675 | 0.0574 | 0.0636 | 0.0874 | 0.0742 | 0.0802 | 0.0882 | 0.0897 | 0.0605 | 0.0722 | 0.0831 | 0.0685 | 0.075 |  |  |  |  |  | 
MGESLFKGPRDYNPISSSIEHLTNESDGHTTSLYGIGFGPFIITNKHLFRRNNGTLVVQSLHGVFKVKDTTTLQQHLVDGRDMIIIRMPKDFPPFPQKLKFREPQREERICLVTTNFQTKSMSSMVSDTSCTFPSGDGIFWKHWIQTKDGQCGSPLVSTRDGFIVGIHSASNFTNTNNYFTSVPKNFMELLTNQEAQQWVSGWRLNADSVLWGGHKVFMVKPEEPFQPVKEATQL [C20E] | 0.0517 | 0.0541 |  | 0.0371 | 0.0419 | 0.0481 |  | 0.0534 | 0.0438 | 0.0386 | 0.0499 |  |  | 0.0373 | 0.0383 | 0.0491 |  |  | 
MGESLFKGPRDPNPISSSICHLTNESDGHTTSLYGIGFGPFIITNKHLFRRNNGTLVVQSLHGVFKVKDTTTLQQHLVDGRDMIIIRMPKDFPPFPQKLKFREPQREERICLVTTNFQTKSMSSMVSDTSCTFPSGDGIFWKHWIQTKDGQCGSPLVSTRDGFIVGIHSASNFTNTNNYFTSVPKNFMELLTNQEAQQWVSGWRLNADSVLWGGHKVFMVKPEEPFQPVKEATQL [Y12P] | 0.0779 | 0.0679 | 0.0578 | 0.0904 | 0.0654 | 0.0814 | 0.0692 | 0.0687 |  | 0.0637 |  | 0.0668 | 0.12 | 0.0685 | 0.0762 | 0.0772 | 0.0784 |  | 
MGESLFKGPRDYNPISSSICHLTNESDGHTTSLYGILFGPFIITNKHLFRRNNGTLVVQSLHGVFKVKDTTTLQQHLVDGRDMIIIRMPKDFPPFPQKLKFREPQREERICLVTTNFQTKSMSSMVSDTSCTFPSGDGIFWKHWIQTKDGQCGSPLVSTRDGFIVGIHSASNFTNTNNYFTSVPKNFMELLTNQEAQQWVSGWRLNADSVLWGGHKVFMVKPEEPFQPVKEATQL [G37L] | 0.0615 | 0.0729 | 0.0647 | 0.0735 | 0.0527 | 0.0938 |  |  | 0.0597 | 0.0625 |  |  |  |  | 0.0557 | 0.0416 |  |  | 
MGESLFKGPRDYNPISSSICHLTNESDGHTTSLYGIGFGPFIITNKHLFRRNNGTLVVQSLHGVFKVKDTTTLQQHLVDGRDMIIIRMPKDFPPFPQKLKFREPQREERICLVTTNFQTKSMSSMVSDTSCTFPSGDGIFWKHWIQTKDGQCGSPLVSTRDGFIVGIHSASNFTNTNNYFTSVPKNFMELLTNQEAQQWVSGWRLNADSVLWGGHKVFMVKPEEPFQPVKEPTQL [A232P] | 0.0864 | 0.0743 | 0.0665 | 0.105 | 0.0584 | 0.0804 |  | 0.0721 |  |  |  |  |  |  |  | 0.0592 |  | 0.0681 | 
MGESLFKGPRDYNPISSSICHLTNESDGHTTSLYGIGFGPFIITNKHLFRRNGGTLVVQSLHGVFKVKDTTTLQQHLVDGRDMIIIRMPKDFPPFPQKLKFREPQREERICLVTTNFQTKSMSSMVSDTSCTFPSGDGIFWKHWIQTKDGQCGSPLVSTRDGFIVGIHSASNFTNTNNYFTSVPKNFMELLTNQEAQQWVSGWRLNADSVLWGGHKVFMVKPEEPFQPVKEATQL [N53G] | 0.0779 | 0.0632 | 0.0661 | 0.0962 | 0.0588 | 0.0732 | 0.0656 | 0.0625 | 0.0733 | 0.0756 | 0.0605 |  |  | 0.0692 | 0.058 | 0.0616 | 0.0815 |  | 0.0627
MGESLFKGPRDYNPISSPICHLTNESDGHTTSLYGIGFGPFIITNKHLFRRNNGTLVVQSLHGVFKVKDTTTLQQHLVDGRDMIIIRMPKDFPPFPQKLKFREPQREERICLVTTNFQTKSMSSMVSDTSCTFPSGDGIFWKHWIQTKDGQCGSPLVSTRDGFIVGIHSASNFTNTNNYFTSVPKNFMELLTNQEAQQWVSGWRLNADSVLWGGHKVFMVKPEEPFQPVKEATQL [S18P] | 0.0626 | 0.0591 |  | 0.0759 | 0.0512 | 0.0402 | 0.0553 | 0.0487 | 0.0429 | 0.0563 |  |  |  |  | 0.049 | 0.0357 | 0.0607 |  | 
MGESLFKGPRDYNPISSSICHLTNESDGHTTSLYGIGFGPFIITNKHLFRRTNGTLVVQSLHGVFKVKDTTTLQQHLVDGRDMIIIRMPKDFPPFPQKLKFREPQREERICLVTTNFQTKSMSSMVSDTSCTFPSGDGIFWKHWIQTKDGQCGSPLVSTRDGFIVGIHSASNFTNTNNYFTSVPKNFMELLTNQEAQQWVSGWRLNADSVLWGGHKVFMVKPEEPFQPVKEATQL [N52T] | 0.0634 | 0.0565 |  | 0.0693 | 0.0526 | 0.0617 | 0.0505 | 0.064 | 0.0601 | 0.0605 |  |  | 0.0496 | 0.0781 | 0.0548 | 0.0483 | 0.0679 |  | 
MGESLFKGPRDYNPISSSICHLTNESDGHTTSLYGIGFGPFIITNKHLFRRFNGTLVVQSLHGVFKVKDTTTLQQHLVDGRDMIIIRMPKDFPPFPQKLKFREPQREERICLVTTNFQTKSMSSMVSDTSCTFPSGDGIFWKHWIQTKDGQCGSPLVSTRDGFIVGIHSASNFTNTNNYFTSVPKNFMELLTNQEAQQWVSGWRLNADSVLWGGHKVFMVKPEEPFQPVKEATQL [N52F] | 0.056 | 0.0636 | 0.0833 | 0.052 | 0.0627 | 0.0646 | 0.0488 | 0.0624 | 0.0587 | 0.0605 |  | 0.0627 | 0.0518 |  | 0.0645 | 0.0593 |  |  | 
